Laboratory results from the antibiotic and cytotoxicity screens of Wong et al. (2023).
The other results are listed elsewhere or left out.

Key:
HSkMC = human skeletal muscle cells; assay: cytotoxicity call (relative viability < 0.9); details: 10 µM
S. aureus RN4220 = assay: growth inhibition call (relative growth <= 0.2); details: 50 µM

Structure (SMILES)	cytotoxicity call (HSkMC)	growth inhibition call (S. aureus RN4220)
CN1C[C@@H]2CNC[C@@H]2C1=O	inactive	inactive
O=C1C[C@@H](c2ccc(O)cc2)CN1	inactive	inactive
O=C1CC2(CCNCC2)CN1	inactive	inactive
O=C(NC[C@H]1CC[C@@H]2NC[C@@H]2O1)C1CCCC1	inactive	inactive
C[C@@H]1CCC(=O)O1	inactive	inactive
CO/C1=C\C(C)=C\[C@@H](C)[C@@H](O)[C@@H](C)C/C(C)=C/C=C/[C@H](OC)[C@@H]([C@@H](C)[C@@H](O)[C@H](C)C(=O)/C=C/[C@H](C)[C@H](O)C(C)C)OC1=O	inactive	inactive
Cn1cc(C(=O)Nc2nn[nH]n2)c2ccccc21	inactive	inactive
OC1(c2cccnc2)CCNCC1	inactive	inactive
Nc1ccc([As](=O)(O)O)cc1	inactive	inactive
CCNC1(c2cccs2)CCCCC1=O.Cl (stereo not drawn)	inactive	inactive
O=c1cccc2n1C[C@@H]1CNC[C@H]2C1	inactive	inactive
CC12CCC3C(CCC45OC4C(O)=C(C#N)CC35C)C1CCC2O (stereo not drawn)	inactive	inactive
C[N+](C)(C)CCCl	inactive	inactive
[N-]=[N+]=Nc1ccccc1C[C@]1(C(N)=O)N=C(c2ccc(OCCCO)cc2)O[C@H]1c1ccccc1N=[N+]=[N-]	inactive	inactive
COC(=O)CC1=C(C(=O)OC)[C@]2(C(=O)Nc3ccccc32)C(C(=O)OC)C(=N)O1 (stereo partly drawn)	inactive	inactive
NC(Cc1ccccc1)Cc1ccccc1	inactive	inactive
CC12CCC3C(CCC4CC(O)CCC43C)C1CCC2O (stereo not drawn)	inactive	inactive
Cc1cccc(Cc2cnc[nH]2)c1C	inactive	inactive
CC(C)(C)[C@@]1(O)C[C@H]2OC(=O)C[C@]23C(=O)O[C@H]2OC(=O)[C@@H](O)[C@]231	inactive	inactive
Nc1nnns1	inactive	inactive
Cc1cc([C@@H](C#N)c2ccc(Cl)cc2)c(Cl)cc1NC(=O)c1cc(I)cc(I)c1O	active	inactive
CC(C)NC(=O)C1=NO[C@]2(CCNC2)C1	inactive	inactive
Cc1c(N)nc([C@H](CC(N)=O)NC[C@@H](N)C(N)=O)nc1C(=O)N[C@H](C(=O)N[C@@H](C)[C@H](O)[C@@H](C)C(=O)N[C@@H](C(=O)NCCc1nc(-c2nc(C(=O)NCCC[S+](C)C)cs2)cs1)[C@@H](C)O)[C@@H](O[C@H]1O[C@H](CO)[C@H](O)[C@@H](O)[C@H]1O[C@H]1O[C@H](CO)[C@@H](O)[C@H](OC(N)=O)[C@@H]1O)c1cnc[nH]1	inactive	inactive
CN1CCc2cc([C@H](CN)N(C)C)ccc21	inactive	inactive
CN1CCc2cc3c(cc2C1O)OCO3.Cl (stereo not drawn)	inactive	inactive
Cc1nccc2c1[nH]c1ccccc12	inactive	inactive
Cl.O=C1CCC2(O)C3Cc4ccc(O)c5c4C2(CCN3CC2CC2)C1O5 (stereo not drawn)	inactive	inactive
COc1cccc(C2(O)CCCCC2CN(C)C)c1.Cl (stereo not drawn)	inactive	inactive
CC(C)NC(=O)[C@H]1CCS(=O)(=O)[C@H]2CNC[C@@H]12	inactive	inactive
